B1: LINE1-mini (parent)
chain: GGCAGAGCUCAACACAGCGUGGCAAAGUGGCUGUGGCUAGACUGCC

Experimental findings from the RNAGym collection of RNA variant scans (doi:10.7554/elife.90254) are described below.

The source gives no read counts; variants with many changes may rest on few reads.

Variants of B1 are the subject of the data set. Description: self-cleavage, relative activity (ratio to wild type); higher = more cleavage; in vitro, sequencing; the parent is a self-cleaving ribozyme.
As for GGCAGGGCUCAACACAGCGUGGCAUAGUGGCUGUGGCUAGACUACC [A6G A25U G44A], the self-cleavage worked out at 0.22.

As to GGCAGGGUUCAACUCAACGUGGGAUAGUGGUUGUGGCUAGACUGCC [A6G C8U A14U G17A C23G A25U C31U], the self-cleavage is 0.1.

For the variant GGCAGGGCUCAACACAGAGUGGCAAAGUGGCAGUGGAUAGACUCCC [A6G C18A U32A C37A G44C], the self-cleavage was 0.02. Under GGCAGGGCUCAACACAGAGUGGAAAAGUGGCUGUGGCUAGACUGCC [A6G C18A C23A] stands 0.16. GGCAGGGCUUAACACAGCGUGGCAAACUGGCUGUGGCUAGACUGCC [A6G C10U G27C]: the self-cleavage was determined as 0.01. On to GGCAGGACUCAACACAGCCUGGCAAAAUGGCUGUGGCUAGACUGCC [A6G G7A G19C G27A], for which the self-cleavage was found to be 0.14. The figure for GGCAGGGCUCAACACAAAGUGGCAAAGUGGCUGUGGCUAGACUGCC [A6G G17A C18A] is 0.14; for GGCAGGACUCAACAGAGCGUCGCAAAGUGGCGGUGGCUAGACUGCC [A6G G7A C15G G21C U32G] it is 0.04. As for GGCAGGGCUCAACACAGCGUGGCAAGGUGGCUGUGGCAAGACUGCC [A6G A26G U38A], the self-cleavage was 0.03.

As for GGCAGGGCUCAAGACAGCGAGGCAAAGUCGCUGUGGCUAGACUGCU [A6G C13G U20A G29C C46U], the self-cleavage was 0.02. The figure for GGCAGGGCUCAACACAGCGUGGCAAAGUGGCUGUGGCUAGUGGGCC [A6G A41U C42G U43G] is 0.02; for GGCAGGGCUGAGCACAUCGUGGCAAAGUGGCUGUGGCUAGACUGCC [A6G C10G A12G G17U] it is 0.03. The figure for GGCAGGGCUCAACACAGGGUGACAAAGUGGCUGUGGCUAGACUGCC [A6G C18G G22A] is 0.04; for GGCAGGGCUCAAGACAGCGUGGCAAAGUGGCCGUGGCUAGAGUUCC [A6G C13G U32C C42G G44U] it is 0.01. Consider GGCAGGGCUCAACACACCGUGGCAAAGUGGCUGUGGCUAGCCUGCA [A6G G17C A41C C46A], for which the self-cleavage was found to be 0.1. The figure for GGCAGGGCUCAACACAGCUUGGCUAAGUGGCGGUGGCUAGACUGCC [A6G G19U A24U U32G] is 0.02. For the variant GGCAGGGCUCAACACAGCGUGGCGAAGUGGCUGUGGCUAGACAGCA [A6G A24G U43A C46A], the self-cleavage was determined as 0.08. Under GGCAGGGCUCAACACACCGUGGCAAAGUGGCGGUGGCUAGACUGCC [A6G G17C U32G] stands 0.02; under GGCAGGGCUCAAUACAGCGUUGCAAAUUUGCUGUGGUUAGACUGCC [A6G C13U G21U G27U G29U C37U], 0.01; under GGCAGGGGUCAACACAGCGUGACAAAGUGGCUGUGGCUAGACUGCC [A6G C8G G22A], 0.07. Under GGCAGGGCUCAACAGAGCGUGCCAAAGAGGCUGUGGCUAUACUGCC [A6G C15G G22C U28A G40U] stands 0.2; under GGCAGGGCUAACCACAGCGUGGCAAAGUGGUUGUUGCUAGACUGCC [A6G C10A A12C C31U G35U], 0.03. Turning to GGCAGGGGUAAACACAGCGUGGCAAGGGGGCUGUGGUCAGACUGAC [A6G C8G C10A A26G U28G C37U U38C C45A], the self-cleavage stood at 0. The figure for GGCAGGGCUCAACAUAGCGUGGCAAAGUGGCUGUGGCUAGACUGCG [A6G C15U C46G] is 0.03.

Turning to GGCAGGGCUCAACACAGCUGGGCAAAGUGGCUGUGUCUAGACUGCC [A6G G19U U20G G36U], the self-cleavage is 0.03. Under GGCAGGGCUCAACUCAGCGUGGUAAAGUGGCUGUGGCUAGACUGCA [A6G A14U C23U C46A] stands 0.01; under GGCAGGGCUCAAUACAGCGUGCCAAAGUGGCUGUGGCUAGACUGCC [A6G C13U G22C], 0.2; under GGCAGGGCUCAACACAGCGUGGCAACGUGGCUGUGGCUGGACUGCC [A6G A26C A39G], 0.

On to GGCAGGGCUCAACAAAUCGUGGCAAAGUGGCUGUGGCUCGACUGCC [A6G C15A G17U A39C], for which the self-cleavage was 0.05. The figure for GGCAGGGCUAAACACAGCGUGGCAAAUUGGCUGUGGCUAGACUGCC [A6G C10A G27U] is 0.25; for GGCAGGGCUCAACACAGGGUGGCAAAGUGCCUGUGGCUAGACUGCC [A6G C18G G30C] it is 0.05. The figure for GGCAGGGCUCAACACACCGUGGCAAAGUGGCUGUGGCUAGACUUCC [A6G G17C G44U] is 0.05; for GGCAGGGCUCAACACAGCGUGGCAUAGUGGCUGGGGCUAGACUGCC [A6G A25U U34G] it is 0.03; for GGCAGGGCUCAACACAGCGUGGCAGAGUAGCUGUGGCUAGACUGCC [A6G A25G G29A] it is 0.02. The figure for GGCAGGGUUCCACACUGCGUGGCAAAGUGGCUGUCGCUAGACUGCC [A6G C8U A11C A16U G35C] is 0.01; for GGCAGGGCUCAACACAGCGUGGCAAAGUGGCUGUGGCUCGUCUGCC [A6G A39C A41U] it is 0.08; for GGCAGGCCUCAACACAGCGUGGCCAAGUGGCUGUGGAUAGACUGCC [A6G G7C A24C C37A] it is 0.08. On to GGCAGGGCUCAACACAGGGUGUCAAAGGGGCUGUGGCUAAACUGCC [A6G C18G G22U U28G G40A], for which the self-cleavage was found to be 0.07.

As to GGCAGGGAUCCACACAGCCUGGCAAAGUGGCCGUGGCUAGACUGCC [A6G C8A A11C G19C U32C], the self-cleavage was found to be 0.03. Take GGCAGGGCUCAACACAGGUUGGCAAAGUGACUGUGGCUAAACUGCC [A6G C18G G19U G30A G40A]: the self-cleavage was determined as 0.07. The figure for GGCAGGCCUCAACACAGGGUGGCAAAGUGGCAGUGGCUAGACACCC [A6G G7C C18G U32A U43A G44C] is 0.01; for GGCAGGGCUAAAGACAGCGUGGCAAAGUGGCUGUGGCUAGACUGCC [A6G C10A C13G] it is 0.02.

With GGCAGGGCUCAACACAGCGUGGCACAGUGGCUGUGGCUAGACUGGC [A6G A25C C45G], the self-cleavage came out at 0.03. As to GGCAGGGCUCAACAGAGCGAGGCAAAGUGGCUGGGGCUAUACUGUC [A6G C15G U20A U34G G40U C45U], the self-cleavage is 0. For the variant GGCAGGGCUCAACACAGCUUGGCAAAGUGGGUGUGGCUAGACUGCC [A6G G19U C31G], the self-cleavage worked out at 0.02.

In the case of GGCAGGGCUUCACACAGCGUGGCAAAGUGGCUGUGGCUAGACUGCC [A6G C10U A11C], the self-cleavage stood at 0.07.

Consider GGCAGGGCUCAACACUGCGUGGCAAAGUGGCUGUGGCGAUACUGGC [A6G A16U U38G G40U C45G], for which the self-cleavage was 0.02. The figure for GGCAGGGCUAAACACCACGUGGCAAGGUGGCUGUGGCUAGACUGCC [A6G C10A A16C G17A A26G] is 0; for GGCAGGGCUGAACACAGCGUGGCAAAGUCGCUGUGGCUAGACUGCC [A6G C10G G29C] it is 0.03.

For GGCAGGGCUCAACACAGCGUGGGAUAGUGGCUGUGGCUAGACUGCC [A6G C23G A25U], the self-cleavage was found to be 0.02. Under GGCAGGGAUCAACACAGCGUGGCAAAGUGGCUGUGGCGAGACUGCC [A6G C8A U38G] stands 0.04; under GGCAGGGGUCAACAAAGCGUAGCAAAGUGGCUGUGGCUAGACUGCC [A6G C8G C15A G21A], 0.07; under GGCAGGGUUCAAGACAGCGUGGUAAAGUGGGUGUGGCUAGACUGCC [A6G C8U C13G C23U C31G], 0.01. Consider GGCAGGGCUCAAGACAGCGUGUCAAAGUGGCUGUGGCUAGACUGCA [A6G C13G G22U C46A], for which the self-cleavage is 0.01. The figure for GGCAGGCCUCACCACAGCGUGACAAAGCGUCUGUGGUUAGACUGCC [A6G G7C A12C G22A U28C G30U C37U] is 0.01. Under GGCAGGGCUCAACACUGCUUGGCAAAGUGGCUAUGGUUAGACUGCC [A6G A16U G19U G33A C37U] stands 0.03.
